# Measured values taken from PubChem BioAssay AID485273 (Sanford-Burnham Center for Chemical Genomics, 2010).
# In all, about 330,000 compounds went through this assay and about 1,500 (0.45%) were called active. The shares of active, inactive and inconclusive entries below differ from those in the screen. Cut-off read from the data, not from the text of the source: active = inhibition above about 45% (passing the limit was not always enough); inconclusive = no clear call, values can overlap the other calls.
# Target: Ubiquitin-conjugating enzyme E2 N (Homo sapiens) (UniProt P61088)
# Sequence of UniProt P61088 (P61088 whole entry, looked up): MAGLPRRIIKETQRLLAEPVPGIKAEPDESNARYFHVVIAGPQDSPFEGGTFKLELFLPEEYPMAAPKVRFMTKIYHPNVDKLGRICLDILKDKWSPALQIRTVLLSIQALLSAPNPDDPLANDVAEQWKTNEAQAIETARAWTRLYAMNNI
# Assay: UBC13 polyubiquitin chain formation inhibitors, primary screen, biochemical, TR-FRET, uHTS (AID 485273)
# Settings: at 20 µM, stronger effect = higher value
row,SMILES,inhibition
1,Cn1c(-c2ccccc2)n[nH]c1=S,inactive: 4%
2,CCOC(=O)c1cc(-c2ccc(Cl)cc2)nc2c1c(C)nn2CCC#N,inconclusive: 79.4%
3,CCc1ccc(CN(C)CC(=O)Nc2ccccc2[N+](=O)[O-])cc1,inconclusive: 92.8%
4,COc1ccc(N2CCN(C(=O)CCS(=O)(=O)c3ccc4c(c3)CCN4C(=O)C3CC3)CC2)cc1,inactive: -5.9%
5,COc1cc(OC)cc(-c2c(-c3cccs3)c3cc(-c4cnc(OC)nc4)ccc3n2C)c1,inconclusive: 61.8%
6,CCn1cc(C(=O)O)c(=O)c2cc(F)c(N3CCN(S(=O)(=O)c4ccc(Br)cc4)CC3)cc21,inconclusive: 63.8%
7,N#CC1=C(N)SC(N)=C(C#N)C1c1cccc(O)c1,inconclusive: 60.6%
8,O=C(O)c1cccc(N2C(=O)c3cccc(Oc4ccc(Cl)cc4)c3C2=O)c1,inactive: -30.7%
9,CCOC(=O)c1c(NC(=O)CSc2nc(C)cc(C)c2C#N)sc(C(C)=O)c1C,inconclusive: 77.2%
10,Cc1cc(C)nc(S/C=C/C(=O)c2ccccc2F)n1,inactive: 6.2%
11,CCOc1ncccc1C(=O)Nc1cc(S(=O)(=O)N2CCOCC2)ccc1OCC(F)(F)F,inconclusive: 62.5%
12,COC(=O)c1c(-c2ccc(OC)cc2)sc2ccccc12,inconclusive: 62.5%
13,N#CC1=C(N)SC(N)=C(C#N)C1c1c(Cl)cccc1Cl,inconclusive: 64.9%
14,Cn1nc(-c2ccccc2)c2nc3ccccc3nc21,inconclusive: 67.8%
15,COC(=O)c1c(-c2ccc(OC)cc2)sc2cc(OC)c(OC)cc12,inconclusive: 71.2%
16,CCOC(=O)N1CCN(C(=O)CN(c2ccc3c(c2)OCO3)S(C)(=O)=O)CC1,inactive: 3.8%
17,Cc1nc(SCc2ccccc2F)c2cnn(-c3ccccc3)c2n1,inconclusive: 48.2%
18,COC(=O)c1c(-c2ccc(N(C)C)cc2)sc2ccc(OC)cc12,inconclusive: 56%
19,O=C(CCc1nnc(CCCCc2ccccc2)o1)N1CCC(N2CCCC2)CC1,inconclusive: 86.2%
20,Cc1ccc2cccc(Oc3cnccn3)c2n1,inactive: 7.5%
21,CC1(C)CC(=O)C2=C(C1)NC1=C(C(=O)c3ccccc31)C2c1cccnc1 (stereo not given),inconclusive: 66%
22,CCN1CCN(CCCNC(=O)c2ccc3c(c2)N(Cc2ccc(C)cc2)CCS3)CC1,inconclusive: 45.9%
23,Cc1cccc(NC(=O)CSc2ccc(-c3ccco3)nn2)c1,inactive: -2.1%
24,Cc1cccc(-c2cc3nc(-c4ccccc4)cc(N4CCC5(CC4)OCCO5)n3n2)c1,inconclusive: 50%
25,COc1ccc(-c2c(C(C)=O)c(C)nc3sc4c(c23)NC(c2ccccc2)NC4=O)cc1 (stereo not given),inconclusive: 70.8%
26,C#CCOCCOCCOCCNc1nc(N2CCN(C(=O)CCCCCCCCCCNC(=O)Cn3cc(CCCCCN)nn3)CC2)nc(N2CCN(C(=O)CCCCCCCCCCNC(=O)[C@@H]([C@H](C)O)n3cc(C)nn3)CC2)n1,active: 116%
27,CCc1[nH]c(=S)c(C#N)c(-c2ccccc2)c1C(=O)OC,inconclusive: 55.5%
28,Cc1ccc(C(=O)c2sc3nsc(C)c3c2N)cc1,inactive: 3.8%

row,SMILES,inhibition
1,NCCCC[C@@H]1NC(=O)c2cc([N+](=O)[O-])cc(F)c2NCCCC[C@@H](C(N)=O)NC(=O)CNC1=O,active: 84.9%
2,Cc1ccn2c(NC3CCCCC3)c(-c3cccc(-c4cccc(Cl)c4)c3)nc2c1,inactive: 15.9%
3,O=c1[nH]cnc2c1sc1nc3c(c(-c4ccc(Cl)cc4)c12)CCC3,inconclusive: 79.7%
4,COC(=O)c1sccc1NC(=S)Nc1ccc(C)cc1,inconclusive: 56%
5,Cc1cc(C(C)(C)C)c(O)c(C(C)(C)C)c1,inactive: 3.6%
6,Cc1cc(SCC(=O)NCC2CCCO2)nc2ccccc12 (stereo not given),inconclusive: 66.6%
7,COc1ccc(-c2noc(N3CCCC(C(=O)Nc4ccccc4F)C3)n2)cc1 (stereo not given),inactive: 4.2%
8,CCOC(=O)N1C(=O)[C@@](c2ccc(Cl)cc2)(C(C)C)N1C(=O)OCC,inactive: 2.7%
9,COc1cc(C=O)c(Br)cc1OC1CCCC1,inconclusive: 67.4%
10,Cn1cc(CN2CCc3sccc3C2)c(-c2ccccc2F)n1,inactive: -4.9%
11,O=C(CCNC(=O)Cn1ccc2ccccc2c1=O)NCCN1CCN(c2cccc(Cl)c2)CC1,active: 101%
12,Cc1ccc([C@@H]2[C@@H]3C(=O)N(C)C(=O)[C@@H]3[C@]3(C)C(=O)N(Cc4ccc(-c5ccccc5)cc4)CC(=O)N23)o1,inactive: 2.6%
13,O=C(CSC1=NNC(c2ccccn2)S1)Nc1ccc(C(F)(F)F)cc1 (stereo not given),inactive: -16.9%
14,CCOC(=O)Cc1csc(-n2sc3ccccc3c2=O)n1,inconclusive: 57.7%
15,N#Cc1ccc(-c2csc(NC(=O)c3cc(-c4cccs4)nc4ccccc34)n2)cc1,inactive: -3.7%
16,Cn1c(C=O)c(C#Cc2ccccc2)c2ccccc21,inconclusive: 93.5%
17,COc1ccc(OC)c(C2/C(=C(/O)c3ccc(C)cc3)C(=O)C(=O)N2Cc2ccco2)c1 (stereo not given),inconclusive: 83.2%
18,CCOC(=O)COc1cc(-n2c(=S)[nH]c3ccccc3c2=O)c(Cl)cc1Cl,inconclusive: 86.1%
19,C#CCn1cnc2c(oc3ccccc32)c1=O,inactive: -1.2%
20,CC(C)[C@H](NC(=O)N1CCn2c1nc1ccccc12)C(=O)NC1CCCCC1,inactive: -3.1%
21,O=C(CCCn1c(=O)c2ccccc2n(Cc2cccc(F)c2)c1=O)NC1CCN(Cc2ccccc2)CC1,active: 100%
22,CCOc1ccc(S(=O)(=O)N2CCCCC2)cc1NC(=O)c1cccnc1OCC,inconclusive: 60.4%
23,COc1ccc(-n2ncc3c(NCc4ccc5c(c4)OCO5)ncnc32)cc1,inconclusive: 46.6%
24,COc1ccc(C(CNC(=O)c2cc3c(s2)CCC(C)C3)N2CCCC2)cc1 (stereo not given),active: 59%
25,Oc1c(-c2cc(-c3ccco3)[nH]n2)ccc2ccccc12,inconclusive: 89.6%
26,O=C(c1ccc(F)cc1)c1cn(Cc2ccc(F)cc2)c2cc3c(cc2c1=O)OCCO3,inconclusive: 71.5%
27,COc1ccc(CCNCC(O)COc2ccc(Cl)cc2)cc1OC (stereo not given),inconclusive: 67.3%
